In article PMC6273692, “Binding Mode and Selectivity of Steroids towards Glucose-6-phosphate Dehydrogenase from the Pathogen Trypanosoma cruzi” (Molecules, 2016):

What was measured:
[1] = system: O=C[C@H](O)[C@@H](O)[C@H](O)[C@H](O)COP(=O)(O)O; assay: purified protein, by the assay type; conditions: apparent, fixed 700 µM NADP+, pH 7.5, 25.0 °C
[2] = target: T1, TcG6PDH L80G (Trypanosoma cruzi, UniProt Q1WBU6, L80G); assay: biochemical
[3] = target: T2, TcG6PDH K83A (Trypanosoma cruzi, UniProt Q1WBU6, K83A); assay: biochemical
[4] = target: T3, TcG6PDH K84A (Trypanosoma cruzi, UniProt Q1WBU6, K84A); assay: biochemical
[5] = target: T4, TcG6PDH R408A (Trypanosoma cruzi, UniProt Q1WBU6, R408A); assay: biochemical
[6] = target: T1, TcG6PDH L80G
[7] = target: T2, TcG6PDH K83A
[8] = target: T3, TcG6PDH K84A
[9] = target: T4, TcG6PDH R408A
[10] = read-out: KM NADP^+, apparent, fixed 6 mM G6P

TcG6PDH K83A (Trypanosoma cruzi; K83A)
Km ([1]; other: K83A): 537 ± 99 µM | kcat ([1]; other: K83A): 2.8 ± 0.2 s⁻¹ | kcat/Km ([1]; other: K83A): 5000 M⁻¹ s⁻¹

C[C@]12CC[C@H](O)C[C@@H]1CC[C@@H]1[C@@H]2CC[C@]2(C)C(=O)CC[C@@H]12 [EA, epiandrosterone]
Ki [2]: 31 µM | Ki [3]: 11 µM | Ki [4]: 8 µM | Ki [5]: 3 µM

TcG6PDH K84A (Trypanosoma cruzi; K84A)
Km ([1]; other: K84A): 618 ± 78 µM | kcat ([1]; other: K84A): 24.6 ± 0.9 s⁻¹ | kcat/Km ([1]; other: K84A): 40000 M⁻¹ s⁻¹

TcG6PDH R408A (Trypanosoma cruzi; R408A)
Km ([1]; other: R408A): 168 ± 7 µM | kcat ([1]; other: R408A): 15.0 ± 0.3 s⁻¹ | kcat/Km ([1]; other: R408A): 89000 M⁻¹ s⁻¹

NC(=O)c1ccc[n+]([C@@H]2O[C@H](COP(=O)([O-])OP(=O)(O)OC[C@H]3O[C@@H](n4cnc5c(N)ncnc54)[C@H](OP(=O)(O)O)[C@@H]3O)[C@@H](O)[C@H]2O)c1 [NADP^+]
Km [6, 10]: 75 ± 9 µM | kcat ([6]; varying NADP+): 2.7 ± 0.1 s⁻¹ | Km [7, 10]: 21 ± 3 µM | kcat ([7]; varying NADP+): 3.0 ± 0.1 s⁻¹ | Km [8, 10]: 17 ± 4 µM | kcat ([8]; varying NADP+): 58 ± 2 s⁻¹ | Km [9, 10]: 17 ± 3 µM | kcat ([9]; varying NADP+): 19 ± 1 s⁻¹

TcG6PDH L80G (Trypanosoma cruzi; L80G)
Km ([1]; other: L80G): 74 ± 17 µM | kcat ([1]; other: L80G): 2.0 ± 0.1 s⁻¹ | kcat/Km ([1]; other: L80G): 27000 M⁻¹ s⁻¹
